# From PubChem BioAssay AID902 (National Center for Advancing Translational Sciences (NCATS), 2007)
# Screen size: about 130,000 compounds; about 1,900 (1.5%) were called active. This list was built around the results that the source calls inconclusive (neither active nor inactive); the mix of calls is not that of the screen. The call rests on the fitted dose curve; in most records, active means well fitted cell-killing curve with a large enough effect; inconclusive means small, poorly fitted or top-dose-only effect; inactive means no such curve, though single readings can be large or run the other way. A potency beside an inconclusive call is a rough fit, not a confirmed value.
# Assay: qHTS Screen for Compounds that Selectively Target Cancer Cells with p53 Mutations: Cytotoxicity of p53ts Cells at the Nonpermissive Temperature; further: nearly all actives have a fitted effect of over 55% in size
# Settings: H1299-p53A138V viability at 39C, ATP luminescence, 24 h; activity change, negative = cell killing: at 46.1 µM (top of the series)
# Description: NIH Chemical Genomics Center [NCGC] NIH Molecular Libraries Screening Centers Network [MLSCN] MLSCN Grant: 1 X01 MH079844-01 Assay Submitter (PI): Dr. SUN, YI, University of Michigan NCGC Assay Overview: Synthetic Lethal Screen for Compounds to Kill Cancer Cells with p53 Mutation. Tumor suppressor gene p53 serves as a major cellular barrier against tumorigenesis. […] The goal of this screening is to identify small molecule probes that selectively kill cancer cells with mutations in p53. This screening was carried out using two lines of H1299 lung cancer cells. The H1299-p53 A138V line express a temperature sensitive p53 mutant (p53ts) in which the mutant p53 protein (A138V) is in the mutant confirmation when grown at 39C (the nonpermissive temperature) and in the wild type conformation when grown at 32C (the permissive temperature). A H1299-neo line (p53 null) grown at both 39C and 32C were used as counter-screens to filter out false positive associated with temperature shifting. The small molecular compounds that selectively target mutant p53-containing cancer cells were selected as candidate probes for further study. A cytotoxicity assay based on the measurement of ATP contents in cells was used in this screen. Concentration-responses of all the compounds in the library collection were determined in qHTS using the cell lines and temperature conditions as above.
# NCGC Assay Protocol Summary: Both the H1299-p53A138V and H1299-neo cell lines were provided by Dr.Yi Sun, a PI at the University Michigan. The cells were maintained and cultured at 37C. The resuspended frozen cells were used to plate the cells in the 1536-well assay plates at a density of 600 cells per well in 5 ul medium. The assay plates with the cells were incubated at 37C for 16 to 30 hours before the experiments. The library compounds in DMSO solution were added to the cells in assay plates and incubated 24 hours at 39C (for mutant p53 conformation) or 32C (for normal p53 conformation as control). An ATP_lite assay kit (PerkinElmer) was used to determine the cell viability. Tomaxifen (100uM) was used as the positive control for cell killing. Data were normalized to the controls for basal activity (DMSO only) and 100% killing (100uM tamoxifen). AC50 values were determined from concentration-response data modeled with the standard Hill equation. P53 assay protocol: 1. Reagent; 5 uL H1299-p53A138V or H1299-neo cell cells/well 2. Time; overnight; 37C incubation 3. Compounds; 23 nL; 5.9 nM to 46 uM 4. Controls; 23 nL; Tamoxifen 100 uM 5. Time; 24 hr; 39C incubation 6. Reagent; 3 uL; ATP_Lite reagent 7. Time; 20 min; Room Temperature 8. Detection; Luminescence; Viewlux plate reader Keywords: p53, synthetic lethal, cancer, cell viability, cytotoxicity, H1299 cell line, luminescence, MLSMR, MLSCN, NIH Roadmap, qHTS, NCGC
# On the % scale 0 is the no-effect control and ±100 the full control effect; potency means the concentration at half of the fitted maximal effect; tags describe the fitted curve by direction and shape.
SMILES,Potency,"activity change, negative = cell killing"
COc1ccc(CCN2C(=O)CN(C3CCCCCC3)C(=O)C2c2ccc(OC(C)C)c(OC)c2)cc1OC (centres undefined),"inconclusive: 20 µM [cytotoxic, partial curve]",–
CN(C(=O)c1ccc2c(Cl)c3c(nc2c1)CCC3)c1ccccc1F,"inconclusive: 31.6 µM [cytotoxic, single point]",–
CCOc1ccc(Nc2oc(/C=C/c3cccc(OC)c3)nc2C#N)cc1,–,inactive: -8.69%
Cc1cccc(-n2ncc3c(NC(C)C)ncnc32)c1,active: 15.8 µM,–
Cc1ccccc1CSc1ccc(-c2cccs2)nn1,active: 11.2 µM,–
COc1ccc(C2=NOC(C(=O)Nc3cc(Br)ccc3O)C2)cc1OC (centres undefined),"inconclusive: 12.6 µM [cytotoxic, partial curve]",–
CC(=O)n1c2ccccc2c2c(C#N)c(N3CCCCC3)sc21,–,inactive: 8.6%
COc1cccc(-c2cn3ncsc3n2)c1,"inconclusive: 10 µM [cytotoxic, partial curve]",–
Nc1nnc(-c2cc3ccccc3oc2=O)s1,"inconclusive: 10 µM [cytotoxic, partial curve]",–
NC(=O)CSc1ncc2c(n1)-c1ccccc1N(Cc1ccc(F)cc1)S2(=O)=O,–,inconclusive: -41.2% [cytotoxic]
CCC(=O)Nc1cc2nn(-c3ccc(OC)cc3)nc2cc1C,"inconclusive: 2 µM [cytotoxic, full curve]",–
CCOc1ccc(OCCSc2nc(C)cc(=O)[nH]2)cc1,"inconclusive: 15.8 µM [cytotoxic, single point]",–
Cc1ccc(-c2c(C(=O)NCCc3ccccc3)oc(=O)c3ccccc23)cc1,"inconclusive: 25.1 µM [cytotoxic, single point]",–
Cc1cc(C)c2oc(-c3ccc(Cl)c(NC(=O)c4cccs4)c3)nc2c1,"inconclusive: 31.6 µM [cytotoxic, single point]",–
COC1=CC(=O)C(C(=O)c2ccccc2)=CC1=O,"inconclusive: 25.1 µM [cytotoxic, single point]",–
COc1ccc(CCNC(=O)c2ccc(Cn3c(=O)c4ccccc4n(Cc4cccc(F)c4)c3=O)cc2)cc1OC,"inconclusive: 15.8 µM [cytotoxic, single point]",–
Cn1cc(S(=O)(=O)N2CCCCCC2)cc1C(=O)Nc1ccc(Cl)c(C(F)(F)F)c1,"inconclusive: 0.02 µM [cytotoxic, full curve, poor fit]",–
COc1ccc(NC(=O)CCc2c(C)nn(-c3ccc(N4CCCCC4)nn3)c2C)cc1Cl,active: 10 µM,–
Cc1ccccc1NC(=O)CSc1nc2ccccc2c2nc(CCn3cncc3C)nn12,"inconclusive: 35.5 µM [cytotoxic, single point]",–
Cc1ccc(Cn2ccnc2SCC(=O)NCc2ccccc2Cl)cc1,"inconclusive: 1.58 µM [cytotoxic, partial curve, poor fit]",–
Cc1ccc(C(C)C)c(OCC(O)CN2CCN(c3ccccc3F)CC2)c1 (centres undefined),"inconclusive: 25.1 µM [cytotoxic, single point]",–
CCc1cc2c(nc1CC)CCN(CC/C(C)=N/O[C@@H](C)CN1CCCCc3nc(C)c(C)cc31)C2,–,inactive: 5.05% [at 9.22 µM]
C=CCNC(=O)c1ccc(C)cc1Cl,–,inactive: -0.936%

SMILES,Potency,"activity change, negative = cell killing"
CCN(CC)c1ccc(NC(=O)c2cnn(-c3ccccc3)c2-n2cccc2)c(C)c1,"inconclusive: 1.26 µM [cytotoxic, partial curve, poor fit]",–
CCc1ccc(CNc2ccc3c(c2)ncn3C(C)(C)C)cc1,"inconclusive: 20 µM [cytotoxic, single point]",–
CCC(=O)CC(NC(=O)OC)c1ccccc1 (centres undefined),–,inactive: 15.3% [at 9.22 µM]
CCC(C(=O)Nc1ccc(C)c(C)c1)n1c(=O)c(C(F)(F)F)nc2ccccc21 (centres undefined),–,inactive: -0.83%
Cc1ccc(CNC(=O)CCCn2c(=O)c3ccccc3n(CC(=O)Nc3ccc(C)cc3)c2=O)cc1,"inconclusive: 25.1 µM [cytotoxic, single point]",–
Nc1ncn([C@H]2O[C@@H](CO)[C@@H](O)[C@@H]2O)c(=O)n1,"inconclusive: 5.01 µM [cytotoxic, full curve, poor fit]",–
COc1cccc(-c2cc(C(=O)N3C(C)CCCC3C)no2)c1 (centres undefined),"inconclusive: 12.6 µM [cytotoxic, partial curve]",–
Cc1nn(CC(=O)NC2CCC(C)CC2)c(=O)c2c1sc1ccccc12 (centres undefined),"inconclusive: 15.8 µM [cytotoxic, single point]",–
CCC(=O)Nc1ccc(NC(=O)c2ccco2)cc1,active: 10 µM,–
Cc1ccc2oc(-c3ccc(NC(=O)CCC(=O)O)cc3)nc2c1,active: 15.8 µM,–
CCn1cc(C(=O)Nc2cccc(Cl)c2)c2cc(OC)c(OC)cc2c1=O,"inconclusive: 2 µM [cytotoxic, single point]",–
Cc1cccc(C)c1NC(=O)c1ccc2c(c1)nnn2C1CCCC1,"inconclusive: 3.98 µM [cytotoxic, full curve, poor fit]",–
COC(=O)N/N=C\c1c(C)nn(-c2ccccc2)c1Cl,–,inactive: -16.7%
COC(=O)c1[nH]c2c(c1C)C(=O)CC(c1cccs1)C2 (centres undefined),–,inactive: 1.8%
CC(CCc1ccccc1)NC(=O)Cn1ncc2c3ccccc3n(Cc3ccccc3F)c2c1=O (centres undefined),"inconclusive: 25.1 µM [cytotoxic, partial curve, poor fit]",–
C[N+]1(C)CCc2cc(O)c(O)cc2[C@H]1Cc1ccc(O)c(O)c1,–,inactive: -2.69% [at 9.22 µM]
O=C(CSc1nccn1-c1cccc(Cl)c1)Nc1ccc2c(c1)OCO2,"inconclusive: 5.01 µM [cytotoxic, partial curve]",–
O=C(Nc1ccc2nc(SCC(=O)N3CCOCC3)sc2c1)c1cccc(Br)c1,"inconclusive: 7.08 µM [cytotoxic, partial curve]",–
CCc1ccc(NC(=O)C2CCCN(S(=O)(=O)c3ccc4c(c3)oc(=O)n4C)C2)cc1 (centres undefined),"inconclusive: 2.51 µM [cytotoxic, partial curve, poor fit]",–
COc1cccc(CNC(=O)c2cccc(N3CCCS3(=O)=O)c2)c1,–,inactive: -15.3%
C/C(=N/Nc1ccc2ccccc2n1)c1ccccc1O,active: 2.51 µM,–
Cc1cc(Nc2ccccc2C)c2cccc(C)c2n1,"inconclusive: 3.98 µM [cytotoxic, full curve, poor fit]",–
CCCn1c(=O)sc2cc(NC(=O)c3ccccc3Cl)ccc21,"inconclusive: 31.6 µM [cytotoxic, single point]",–

SMILES,Potency,"activity change, negative = cell killing"
Oc1ccc(Br)cc1-c1cc(-c2ccccc2)n[nH]1,"inconclusive: 11.2 µM [cytotoxic, single point]",–
CCc1ccc(-c2nn(-c3ccc(OC)cc3)c3c2cnc2ccc(OC)cc23)cc1,"inconclusive: 31.6 µM [cytotoxic, single point]",–
COC(=O)c1ccc(CSc2nc(N)cc(N)n2)cc1,"inconclusive: 20 µM [cytotoxic, single point]",–
COc1cc(/C=C(/C#N)c2nc(-c3cc4ccccc4oc3=O)cs2)ccc1O,–,inactive: -10.2%
Cc1cccc(NC(=O)CSc2nc3c([nH]c4ccccc43)c(=O)n2-c2cc(C)cc(C)c2)c1,"inconclusive: 3.98 µM [cytotoxic, partial curve]",–
COCCn1c(COc2ccc(C)cc2)nc2ccccc21,"inconclusive: 12.6 µM [cytotoxic, single point]",–
CCc1ccc(S(=O)(=O)c2nnn3c2nc(N(C)Cc2ccccc2)c2cc(Cl)ccc23)cc1,"inconclusive: 0.0126 µM [cytotoxic, full curve, poor fit]",–
COc1ccc(Nc2nc3c(S(=O)(=O)c4ccccc4)nnn3c3ccc(Cl)cc23)cc1,active: 10 µM,–
CSc1cccc(-n2nnc(-c3nsc(NC(=O)c4cccs4)n3)c2C)c1,active: 12.6 µM,–
c1nc(NCCc2cnc[nH]2)c2[nH]cnc2n1,–,inactive: 0.74% [at 9.22 µM]
COc1ccccc1-n1cc(C(=O)NCC(=O)N2CCN(c3ccccn3)CC2)c2ccccc2c1=O,"inconclusive: 12.6 µM [cytotoxic, partial curve]",–
C=CCSc1nnc(-c2cccnc2)o1,–,inactive: -1.41%
Nn1c(Nc2ccccc2)nc2ccccc21,"inconclusive: 12.6 µM [cytotoxic, single point]",–
COc1cc(C2c3[nH]c4ccccc4c3CC3C(=O)N4C(Cc5c([nH]c6ccccc56)C4c4cc(OC)c(OC)c(OC)c4)C(=O)N32)cc(OC)c1OC (centres undefined),–,inactive: -13.4% [at 9.22 µM]
COc1ccc(Cn2c(C(=O)O)c(CNCc3ccco3)c3ccc(C)cc32)cc1,"inconclusive: 0.501 µM [cytotoxic, full curve, poor fit]",–
Cc1ccc(C)c(NC(=O)Nc2cc3c(cc2N2CCCCC2)n(C)c(=O)n3C)c1,"inconclusive: 31.6 µM [cytotoxic, single point]",–
CC1CCCCN1CCNC(=O)c1ccc(Cn2c(SCc3ccccc3)nc3cccnc32)cc1 (centres undefined),active: 10 µM,–
O=C(COc1ccc2oc3c(c2c1)CCCC3)Nc1ccccn1,"inconclusive: 31.6 µM [cytotoxic, single point]",–
CNC1=C(Br)C(=O)c2ccncc2C1=O,active: 2 µM,–
Cc1oc2c(c1C(=O)Nc1ccc(OC(F)(F)F)cc1)C1=NCCN1C=N2,–,inactive: -16.5%
CN(C)c1ccc(-c2cc(-n3ccnc3)ncn2)cc1,"inconclusive: 12.6 µM [cytotoxic, single point]",–
CC1(C)Cc2c(cnn2-c2ccccc2)-c2c1c1ccccc1n2CC(O)CCl (centres undefined),"inconclusive: 35.5 µM [cytotoxic, single point]",–
COc1ccc(C(=O)/C=C/c2cn(CC(O)CN3CCCCCC3)c3ccccc23)cc1OC (centres undefined),active: 12.6 µM,–
